The values that follow come from article PMC4336329 (PLoS ONE, 2015).

The campaign covered roughly 310,000 compounds. About 2,200 (0.71%) showed an effect of 50% or more. The effect is printed as a negative number. Some of the results follow.

Sequence of human ether-à-go-go-related gene (hERG) potassium channel (Q12809 whole entry, looked up): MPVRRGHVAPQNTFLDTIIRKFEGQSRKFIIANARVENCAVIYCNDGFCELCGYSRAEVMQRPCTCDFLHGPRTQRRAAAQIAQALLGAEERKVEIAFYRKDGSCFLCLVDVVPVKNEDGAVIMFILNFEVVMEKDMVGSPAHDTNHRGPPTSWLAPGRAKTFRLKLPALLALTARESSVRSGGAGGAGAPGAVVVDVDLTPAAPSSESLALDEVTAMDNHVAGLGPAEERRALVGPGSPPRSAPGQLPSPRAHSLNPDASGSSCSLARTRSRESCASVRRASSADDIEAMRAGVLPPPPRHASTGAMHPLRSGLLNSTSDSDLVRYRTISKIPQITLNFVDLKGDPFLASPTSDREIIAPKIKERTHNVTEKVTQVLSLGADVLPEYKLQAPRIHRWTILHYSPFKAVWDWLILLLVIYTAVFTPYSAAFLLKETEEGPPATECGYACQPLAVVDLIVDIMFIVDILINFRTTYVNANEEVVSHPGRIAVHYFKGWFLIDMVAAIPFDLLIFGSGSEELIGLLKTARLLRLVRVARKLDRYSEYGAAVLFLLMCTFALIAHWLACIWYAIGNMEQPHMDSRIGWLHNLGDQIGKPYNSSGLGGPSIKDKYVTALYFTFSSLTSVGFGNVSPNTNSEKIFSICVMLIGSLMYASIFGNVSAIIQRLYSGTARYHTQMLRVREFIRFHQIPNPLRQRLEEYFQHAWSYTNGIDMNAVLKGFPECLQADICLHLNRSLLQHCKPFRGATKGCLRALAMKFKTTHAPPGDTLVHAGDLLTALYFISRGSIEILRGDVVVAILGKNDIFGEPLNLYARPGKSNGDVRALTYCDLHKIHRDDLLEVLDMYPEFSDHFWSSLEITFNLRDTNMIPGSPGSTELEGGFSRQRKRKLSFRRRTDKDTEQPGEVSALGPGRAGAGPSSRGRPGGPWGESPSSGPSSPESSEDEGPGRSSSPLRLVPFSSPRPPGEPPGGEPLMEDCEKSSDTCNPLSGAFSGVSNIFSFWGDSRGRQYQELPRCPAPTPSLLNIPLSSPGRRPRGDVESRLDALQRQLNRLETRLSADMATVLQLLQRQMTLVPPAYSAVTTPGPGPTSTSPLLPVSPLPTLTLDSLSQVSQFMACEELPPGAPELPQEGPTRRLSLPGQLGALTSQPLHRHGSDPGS

This test addresses human ether-à-go-go-related gene (hERG) potassium channel (human, UniProt Q12809). Nature of the test: primary screen, population patch clamp on CHO cells stably expressing hERG.
For `N#Cc1cn(OCc2ccccc2)c(=O)[nH]c1=O`, the “hERG current change (%, negative = inhibition) at 1uM” value came to 10.9%. `CCCCCCN(C(=O)CCCCCN1C(=O)NC(c2ccc(-c3ccccc3)cc2)C(C(=O)OCc2ccccc2)=C1C)C(C(=O)NCCCC)c1ccc(OCC(=O)OC)cc1` (stereo not drawn): the “hERG current change (%, negative = inhibition) at 1uM” value is 16.7%. Take `COc1ccc(-c2cc(C(=O)NCC3CCCO3)c3cc(C(C)C)ccc3n2)cc1` (stereo not drawn): the “hERG current change (%, negative = inhibition) at 1uM” value is given as 16%. `COCCNc1ncnc2c1cnn2-c1ccc(Cl)cc1`: the “hERG current change (%, negative = inhibition) at 1uM” value is on record as -16.2%. Turning to `COc1ccccc1C(=O)N(CCN(C)C)c1nc2cc(C)cc(C)c2s1.Cl`, the “hERG current change (%, negative = inhibition) at 1uM” value is on record as -39.8%. Next, `CC(Oc1cc2oc(=O)c3c(c2cc1Cl)CCC3)C(=O)NCCCn1ccnc1` (stereo not drawn): 7.41%; `Cc1cccn2c(=O)c3cc(C(=O)NCC4CCCO4)c(=N)n(CCc4ccccc4)c3nc12` (stereo not drawn): -84.4%. Next, `COc1ccc(/C=C/C(=O)c2ccc[nH]2)c(OC)c1OC`: 4.5%.

Take `Cc1cccn2c(=O)c3cc(C(=O)NCC4CCCO4)c(=N)n(C4CCCCC4)c3nc12` (stereo not drawn): the “hERG current change (%, negative = inhibition) at 1uM” value is on record as -83.7%. Regarding `Br.Fc1cccc(CNCC2CCCO2)c1` (stereo not drawn), the “hERG current change (%, negative = inhibition) at 1uM” value was determined as 13.4%. For the molecule `O=C(COC(=O)COc1ccccc1)NC12CC3CC(CC(C3)C1)C2`, the “hERG current change (%, negative = inhibition) at 1uM” value was 3.72%. Consider `Cc1nc2ccc(S(=O)(=O)NCC(=O)NC(C)c3ccccc3)cc2s1` (stereo not drawn), for which the “hERG current change (%, negative = inhibition) at 1uM” value is 9.38%.

On to `Clc1ccc(-c2ccc(-c3nn4c(-c5ccco5)nnc4s3)o2)cc1`, for which the “hERG current change (%, negative = inhibition) at 1uM” value amounted to 6.98%. With `CCCn1c(CCC(=O)Nc2ccccc2Cc2ccccc2)nc2cc(S(=O)(=O)N3CCOCC3)ccc21`, the “hERG current change (%, negative = inhibition) at 1uM” value was 1.03%. On to `CCc1nnc(NS(=O)(=O)c2ccc(NC(=O)/C=C/c3ccccc3Cl)cc2)s1`, for which the “hERG current change (%, negative = inhibition) at 1uM” value is -0.157%. For `Cl.O=C1CC2(CCCC2)CC(=O)N1CCCCN1CCN(c2ncccn2)CC1` the value was -10.5%. Take `Cc1cccc(N(CC(=O)NC2CCCC2)C(=O)c2csnn2)c1C`: the “hERG current change (%, negative = inhibition) at 1uM” value came out at 16.1%. Turning to `OC(CNCC1COc2ccccc2O1)COc1ccccc1F` (stereo not drawn), the “hERG current change (%, negative = inhibition) at 1uM” value is listed as 16.9%. As to `Cc1cc(C)c(NC(=O)c2ccc(S(=O)(=O)N3CCOCC3)cc2)c(C)c1`, the “hERG current change (%, negative = inhibition) at 1uM” value worked out at 10.4%.

`CCOC(=O)C1CCCN(Cc2cccc(Cl)c2)C1` (stereo not drawn): the “hERG current change (%, negative = inhibition) at 1uM” value came out at 13.2%.

Regarding `O=C(O)CN(c1ccc2c(c1)OCCO2)S(=O)(=O)c1ccccc1`, the “hERG current change (%, negative = inhibition) at 1uM” value was 13.3%. For the molecule `Cc1c(NC(=O)CSc2ccc(Cl)cc2)cccc1-c1nc2cc(Cl)ccc2o1`, the “hERG current change (%, negative = inhibition) at 1uM” value stood at 7.19%. As for `CCOC(=O)N1CCN(CC(O)COc2ccc(-c3ccccc3)cc2)CC1.Cl` (stereo not drawn), the “hERG current change (%, negative = inhibition) at 1uM” value was 5.91%. As to `O=C(Nc1ccc2c(c1)CCC2)c1cc(S(=O)(=O)N2CCN(c3ccccc3)CC2)ccc1Cl`, the “hERG current change (%, negative = inhibition) at 1uM” value came out at 4.32%. For `Cc1ccc(CS(=O)(=O)Cc2ccc(C(=O)NCc3ccco3)o2)cc1`, the “hERG current change (%, negative = inhibition) at 1uM” value is given as -4.57%.

`Cc1ccc(NC(=O)c2cc(NC(=O)/C=C\C(=O)O)ccc2N2CCCCC2)cc1`: the “hERG current change (%, negative = inhibition) at 1uM” value is 8.13%. Regarding `CCc1ccccc1NC(=S)N(CCN(C)C)Cc1cccs1`, the “hERG current change (%, negative = inhibition) at 1uM” value was found to be 5.15%.

Turning to `Cc1ccc(OCc2nnc(SCC(=O)O)n2N)cc1`, the “hERG current change (%, negative = inhibition) at 1uM” value was 19.5%.

For `Cc1cc(OCC(=O)NNC(=S)NCC2CCCO2)cc(C)c1Cl` (stereo not drawn), the “hERG current change (%, negative = inhibition) at 1uM” value worked out at 15%.

For the molecule `CC(=O)Nc1ccc(NC(=O)CN(c2ccc(F)cc2)S(=O)(=O)c2ccc3c(c2)OCCO3)cc1`, the “hERG current change (%, negative = inhibition) at 1uM” value is reported as 7.23%. Regarding `COc1cccc(OC)c1NC(=O)CN(C)S(=O)(=O)c1ccc2c(c1)OCCO2`, the “hERG current change (%, negative = inhibition) at 1uM” value is reported as 5.52%. For `CCOC(=O)C1=C(C)Nc2ccccc2N=C1NC(=O)Cc1ccc(OC)cc1` the value was 29.2%; for `N#Cc1ccc(Oc2ccc(/C=N/O)cn2)cc1`, -9.63%; for `NC(=O)c1nsc(C(=O)N(c2ccccc2F)C(C(=O)NCc2ccccc2)c2ccc(O)cc2)c1N` (stereo not drawn), 8.51%. Regarding `O=C(c1ccco1)N1CCN(Cc2cc(=O)c(OCc3cccc(F)c3)co2)CC1`, the “hERG current change (%, negative = inhibition) at 1uM” value is listed as -29.3%. Take `COc1ccccc1CC(=O)N1CCCc2ccccc21`: the “hERG current change (%, negative = inhibition) at 1uM” value was 15.7%.

Turning to `CC(C)C(=O)c1cn(CC(=O)NCC2CCCO2)c2ccccc12` (stereo not drawn), the “hERG current change (%, negative = inhibition) at 1uM” value worked out at 13%. Next, `CCN(CC)CCNC1=CC(=O)OC12CCCCC2`: 9.31%.

`Cc1cc(C)cc(N(C(=O)CNC(=O)c2ccco2)C(C(=O)NC2CCCC2)c2ccncc2)c1` (stereo not drawn): the “hERG current change (%, negative = inhibition) at 1uM” value was -4.9%. For the molecule `O=C1Nc2ccccc2/C1=C/c1ccccc1Cl`, the “hERG current change (%, negative = inhibition) at 1uM” value amounted to 14%. Regarding `Cc1ccc(NC(=O)CCC(=O)O)cc1F`, the “hERG current change (%, negative = inhibition) at 1uM” value is 8.6%. `COc1cccc(CN2CCSCC2)c1OC`: the “hERG current change (%, negative = inhibition) at 1uM” value is given as 8.83%. Next, `CC(C)OCCCNC(=O)C1CCC(CNS(=O)(=O)c2ccccc2)CC1` (stereo not drawn): 5.45%; `O=C(COC(=O)Cc1ccccc1)NCCNC(=O)COC(=O)Cc1ccccc1`: 2.05%; `CCOC(=O)[C@@H]1[C@H]2COc3ccc(Br)cc3[C@H]2N2C(=O)N(c3ccc(C)cc3)C(=O)[C@]12C`: 4.94%. For `N#CNC(=Nc1cccc(F)c1)SCc1cccc(F)c1` the value was 6.12%.

Regarding `Cc1ccc(C(=O)OCC(=O)NNC(=O)COc2ccc(Cl)cc2)c(O)c1`, the “hERG current change (%, negative = inhibition) at 1uM” value is given as 11.4%.

Consider `COc1cccc(-c2cccc(NC(=O)C3CCN(C4CCC4)CC3)c2)c1`, for which the “hERG current change (%, negative = inhibition) at 1uM” value is on record as -17.5%. For the molecule `CCOC(=O)Cc1nnc(NC(=O)CSc2nnc3c4ccccc4n(C)c3n2)s1`, the “hERG current change (%, negative = inhibition) at 1uM” value is -2.99%. Next, `Cc1ccc(NC(=O)Nc2ccnc(-c3cccnc3)n2)cc1`: -0.274%; `COc1cc2c(cc1OC)C(c1ccc(C(F)(F)F)cc1)CC(=O)N2` (stereo not drawn): 5.68%; `CCOC(=O)c1c(-c2ccc(C)cc2)cn2ccccc12`: 11.1%. On to `COc1ccccc1NC(=O)Nc1ccc(N2CCOCC2)cc1`, for which the “hERG current change (%, negative = inhibition) at 1uM” value stood at 10.4%. Next, `CC[n+]1ccccc1/C=C1\Sc2ccc(C)cc2N1C.[I-]`: -7.34%. Consider `O=C(Nc1nc2ccc(S(=O)(=O)N3CCCCC3)cc2s1)C1CCCO1` (stereo not drawn), for which the “hERG current change (%, negative = inhibition) at 1uM” value is recorded as 7.35%. Take `COc1ccc(CCNC(=O)c2nn(C)c3c2CS(=O)(=O)c2ccccc2-3)cc1OC`: the “hERG current change (%, negative = inhibition) at 1uM” value stood at 10.5%. For `CCCCNc1c([N+](=O)[O-])ncn1C` the value was -4.04%; for `COc1cc2cc(CN(CCCN3CCOCC3)C(=O)Nc3ccccc3F)c(=O)[nH]c2cc1OC`, 22.5%; for `Cc1noc(C)c1S(=O)(=O)N1CCN(S(=O)(=O)c2ccccc2C#N)CC1`, 12.8%. For `CCN(CC(=O)Nc1ccc2c(c1)OCCO2)C(=O)COc1cc(C)ccc1Cl` the value was 9.28%; for `Cc1cccc(OCCCSc2nc3ccc(C)cc3[nH]2)c1`, 16.2%.

As to `Clc1nc2c(-c3ccccc3)nnn2c2ccccc12`, the “hERG current change (%, negative = inhibition) at 1uM” value is recorded as 8.57%. Regarding `O=C(CCCc1ccccc1)NCCc1cnc[nH]1`, the “hERG current change (%, negative = inhibition) at 1uM” value is 10.1%. For the molecule `CC(=O)CC(c1ccccc1)S(=O)(=O)c1ccc(C)cc1` (stereo not drawn), the “hERG current change (%, negative = inhibition) at 1uM” value worked out at 5.76%. For `O=C(c1ccccc1Cl)N1CCN(S(=O)(=O)N2CCCCC2)CC1` the value was 15.1%; for `O=S(=O)(NCCOCCNS(=O)(=O)c1ccccc1)c1ccccc1`, 9.64%; for `Cc1ccc(C(O)CN2C3=NCCCN3c3ccccc32)cc1.Cl` (stereo not drawn), -51.4%. As for `CC(CC(=O)Nc1cc(S(=O)(=O)N2CCOCC2)ccc1OCC(F)(F)F)c1ccccc1` (stereo not drawn), the “hERG current change (%, negative = inhibition) at 1uM” value is given as -11.8%. Regarding `CN(C)C(CNC(=S)Nc1ccccc1)c1cccnc1` (stereo not drawn), the “hERG current change (%, negative = inhibition) at 1uM” value is recorded as 12.3%. Consider `Cc1ccc(C(=O)N/N=C\c2ccc[nH]2)cc1[N+](=O)[O-]`, for which the “hERG current change (%, negative = inhibition) at 1uM” value is recorded as 8.21%. On to `COc1ccc(C(C#N)C2(C)OCCO2)cc1OC` (stereo not drawn), for which the “hERG current change (%, negative = inhibition) at 1uM” value amounted to 6.46%.

Regarding `Cc1onc(-c2ccccc2)c1C(=O)N1CCCC(C(F)(F)F)C1` (stereo not drawn), the “hERG current change (%, negative = inhibition) at 1uM” value is listed as -6.53%. Take `c1ccc(CC2CCN(c3nc4ccccc4n4nnnc34)CC2)cc1`: the “hERG current change (%, negative = inhibition) at 1uM” value is 17.2%. Take `O=C(C1CCC(=O)N1Cc1cccnc1)N1CCN(c2ccc(F)cc2)CC1` (stereo not drawn): the “hERG current change (%, negative = inhibition) at 1uM” value was 10.5%. For `CC(/C=N/NC(=O)Cc1cc(=O)[nH][nH]1)=C\c1ccccc1` the value was 8.24%; for `CN(CC(=O)NCCC1=CCCCC1)S(=O)(=O)c1ccc2c(c1)c(=O)n(C)c(=O)n2C`, -20.6%.

With `Cc1c(S(=O)(=O)N2CCOCC2)c(=O)n(C)c(=O)n1C`, the “hERG current change (%, negative = inhibition) at 1uM” value was 0.31%. As for `Cn1nc([N+](=O)[O-])nc1Oc1ccc2ccccc2c1`, the “hERG current change (%, negative = inhibition) at 1uM” value is 0.721%. For `Cc1ccccc1NC(=S)NC(=O)Cc1ccc(Cl)cc1`, the “hERG current change (%, negative = inhibition) at 1uM” value was 11.9%.

For the molecule `O=C(COC(=O)CCN1C(=O)c2cccc([N+](=O)[O-])c2C1=O)NC1CCS(=O)(=O)C1` (stereo not drawn), the “hERG current change (%, negative = inhibition) at 1uM” value is reported as 2.61%. `COc1ccc(NC(=O)c2ccc(COCC(F)(F)F)cc2)cc1OC`: the “hERG current change (%, negative = inhibition) at 1uM” value stood at 10.5%. `CCOC(=O)C(NC(C)=O)(OCc1ccc(F)cc1)C(F)(F)F` (stereo not drawn): the “hERG current change (%, negative = inhibition) at 1uM” value is recorded as 10.4%. Next, `CCCCn1c(SC(C)C(N)=O)nc2cc(C(=O)OC)ccc2c1=O` (stereo not drawn): 3.35%. Consider `COc1ccc(OC)c(NC(=O)CCN2CCN(c3ccccc3OC)CC2)c1`, for which the “hERG current change (%, negative = inhibition) at 1uM” value is listed as 9.26%.

On to `CCOc1ccccc1/C=C/c1cc(C(=O)O)c2ccccc2n1`, for which the “hERG current change (%, negative = inhibition) at 1uM” value turned out to be 13.4%. For `Cc1noc(C)c1CSCC(=O)N(C)CC(=O)Nc1ccccc1Br` the value was 17.4%; for `Cc1cc(=O)[nH]c(SCC(=O)Nc2cccc(S(=O)(=O)N3CCOCC3)c2)n1`, 9.94%.
